The source of these data is paper PMC8827906.

Protein sequences, listed by entry. Tags and fused reporters are not part of them.
UniProt P07437: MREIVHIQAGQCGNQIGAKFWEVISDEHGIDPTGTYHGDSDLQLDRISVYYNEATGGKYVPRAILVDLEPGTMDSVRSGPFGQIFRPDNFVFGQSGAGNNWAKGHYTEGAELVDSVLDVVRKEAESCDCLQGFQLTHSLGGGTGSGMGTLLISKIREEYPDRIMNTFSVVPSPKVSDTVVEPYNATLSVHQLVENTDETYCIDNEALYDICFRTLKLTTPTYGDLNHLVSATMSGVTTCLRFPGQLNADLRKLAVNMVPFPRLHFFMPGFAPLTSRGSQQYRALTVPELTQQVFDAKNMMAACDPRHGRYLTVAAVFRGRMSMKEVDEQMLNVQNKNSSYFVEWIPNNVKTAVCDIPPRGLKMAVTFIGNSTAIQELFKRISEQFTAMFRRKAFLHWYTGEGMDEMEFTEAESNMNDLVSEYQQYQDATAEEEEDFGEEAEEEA

The target in assay [1] is Polo-like kinase 2 (PLK2), wild type, BiFC bait fused to the N-terminal YFP fragment (human) (UniProt Q9NYY3). Briefly: split reporter; BiFC in HEK293T cells: stable PLK2-bait (YFP N-fragment) cell line infected with prey (YFP C-fragment) retrovirus; YFP-positive cells counted by flow cytometry 48 hours after infection; repeated five times in triplicate.
Assay [2] deals with Full-length wild-type PLK2 expressed from pCDNA3.1 (human) (UniProt Q9NYY3). Briefly: proximity ligation; Duolink in situ Red PLA in fixed, permeabilised HEK293T cells co-transfected with pCDNA3.1 constructs; mouse anti-PLK1 and rabbit anti-PLK2 primary antibodies; with or without nocodazole (40 ng/mL, 16 hours).
Assay [3] addresses T1, PLK2-KD, kinase-dead mutant (K111R) (human) (UniProt Q9NYY3).
T1 sequence: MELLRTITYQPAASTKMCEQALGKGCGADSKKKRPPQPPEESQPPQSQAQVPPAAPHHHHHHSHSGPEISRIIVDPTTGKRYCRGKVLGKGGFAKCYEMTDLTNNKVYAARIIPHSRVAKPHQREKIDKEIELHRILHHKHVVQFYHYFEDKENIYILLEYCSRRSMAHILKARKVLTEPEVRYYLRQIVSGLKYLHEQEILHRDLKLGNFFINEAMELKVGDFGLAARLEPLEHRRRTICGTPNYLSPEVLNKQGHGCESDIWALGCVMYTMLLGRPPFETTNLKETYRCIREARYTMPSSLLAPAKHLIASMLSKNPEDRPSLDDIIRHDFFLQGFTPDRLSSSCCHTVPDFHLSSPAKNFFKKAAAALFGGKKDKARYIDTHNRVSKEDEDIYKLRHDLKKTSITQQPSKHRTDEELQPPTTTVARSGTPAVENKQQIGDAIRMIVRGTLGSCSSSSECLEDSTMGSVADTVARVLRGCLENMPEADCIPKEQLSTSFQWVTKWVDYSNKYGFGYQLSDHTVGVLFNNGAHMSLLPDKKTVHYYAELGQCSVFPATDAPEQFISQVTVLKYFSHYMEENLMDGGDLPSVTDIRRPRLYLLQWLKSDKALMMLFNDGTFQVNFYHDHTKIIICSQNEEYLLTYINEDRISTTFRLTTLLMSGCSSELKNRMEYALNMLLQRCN
The description is as above.

The target of assay [4] is T2, PLK2-PBD, polo-box domain mutant (W503F, H629A, K631M) (human) (UniProt Q9NYY3).
T2 sequence: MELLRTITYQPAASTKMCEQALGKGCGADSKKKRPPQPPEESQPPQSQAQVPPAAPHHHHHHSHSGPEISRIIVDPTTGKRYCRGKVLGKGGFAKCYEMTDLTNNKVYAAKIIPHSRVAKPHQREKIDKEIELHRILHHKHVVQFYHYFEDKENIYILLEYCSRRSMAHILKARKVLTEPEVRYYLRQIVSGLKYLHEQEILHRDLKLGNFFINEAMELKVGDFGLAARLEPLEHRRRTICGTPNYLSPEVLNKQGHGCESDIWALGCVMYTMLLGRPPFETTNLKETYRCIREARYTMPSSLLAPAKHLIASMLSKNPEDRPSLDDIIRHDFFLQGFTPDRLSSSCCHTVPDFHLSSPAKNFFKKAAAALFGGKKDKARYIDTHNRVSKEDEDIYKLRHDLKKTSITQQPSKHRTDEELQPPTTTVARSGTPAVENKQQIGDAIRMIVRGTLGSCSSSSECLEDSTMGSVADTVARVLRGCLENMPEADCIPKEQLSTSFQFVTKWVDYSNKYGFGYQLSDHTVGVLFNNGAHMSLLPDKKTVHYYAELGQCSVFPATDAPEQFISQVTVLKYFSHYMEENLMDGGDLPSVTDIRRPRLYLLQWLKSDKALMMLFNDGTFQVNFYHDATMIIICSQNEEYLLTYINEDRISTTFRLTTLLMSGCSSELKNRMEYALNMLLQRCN
The description is as above.

Assay [5] addresses Polo-like kinase 2 (PLK2), wild type, BiFC bait fused to the N-terminal YFP fragment (human) (UniProt Q9NYY3). Briefly: split reporter; BiFC in HEK293T cells: stable PLK2-bait (YFP N-fragment) cell line infected with prey (YFP C-fragment) retrovirus; YFP-positive cells counted by flow cytometry 48 hours after infection; repeated five times in triplicate. This is another data set of the same source.

Like-named read-outs stand apart in the source and are kept apart here. No constants are given. Whether binding was seen depends on the method and setting. Binding seen in cells or lysates may run through a third protein. Some entries that bind do so weakly or less than the wild type. For part of these data: Sequences can lack the tags named with a protein.

Regarding “Polo-like kinase 1 (PLK1), BiFC prey fused to the C-terminal YFP fragment (from UniProt P53350 1-603)”, in assay [1], the binding result is recorded as “binds”.
Same read-out and setting: next, “β-tubulin (TUBB), BiFC prey fused to the C-terminal YFP fragment (from UniProt P07437 1-444)”: “binds”.
For “Full-length PLK1 expressed from pCDNA3.1 (from UniProt P53350 1-603)”, the binding result in assay [2], in assay [3] and in assay [4] was “binds” throughout.

B1: RB transcriptional corepressor 1 (RB1), BiFC prey fused to the C-terminal YFP fragment (protein, UniProt P06400 1-928)
chain: MPPKTPRKTAATAAAAAAEPPAPPPPPPPEEDPEQDSGPEDLPLVRLEFEETEEPDFTALCQKLKIPDHVRERAWLTWEKVSSVDGVLGGYIQKKKELWGICIFIAAVDLDEMSFTFTELQKNIEISVHKFFNLLKEIDTSTKVDNAMSRLLKKYDVLFALFSKLERTCELIYLTQPSSSISTEINSALVLKVSWITFLLAKGEVLQMEDDLVISFQLMLCVLDYFIKLSPPMLLKEPYKTAVIPINGSPRTPRRGQNRSARIAKQLENDTRIIEVLCKEHECNIDEVKNVYFKNFIPFMNSLGLVTSNGLPEVENLSKRYEEIYLKNKDLDARLFLDHDKTLQTDSIDSFETQRTPRKSNLDEEVNVIPPHTPVRTVMNTIQQLMMILNSASDQPSENLISYFNNCTVNPKESILKRVKDIGYIFKEKFAKAVGQGCVEIGSQRYKLGVRLYYRVMESMLKSEEERLSIQNFSKLLNDNIFHMSLLACALEVVMATYSRSTSQNLDSGTDLSFPWILNVLNLKAFDFYKVIESFIKAEGNLTREMIKHLERCEHRIMESLAWLSDSPLFDLIKQSKDREGPTDHLESACPLNLPLQNNHTAADMYLSPVRSPKKKGSTTRVNSTANAETQATSAFQTQKPLKSTSLSLFYKKVYRLAYLRLNTLCERLLSEHPELEHIIWTLFQHTLQNEYELMRDRHLDQIMMCSMYGICKVKNIDLKFKIIVTAYKDLPHAVQETFKRVLIKEEEYDSIIVFYNSVFMQRLKTNILQYASTRPPTLSPIPHIPRSPYKFPSSPLRIPGGNIYISPLKSPYKISEGLPTPTKMTPRSRILVSIGESFGTSEKFQKINQMVCNSDRVLKRSAEGSNPPKPLKKLRFDIEGSDEADGSKHLPGESKFQQKLAEMTSTRTRMQKQKMNDSMDTSNKEEK
Regarding B1, the binding result in assay [5] is reported as “no binding”.
